From ChEMBL document CHEMBL4888484, “Replenishing the malaria drug discovery pipeline: Screening and hit evaluation of the MMV Hit Generation Library 1 (HGL1) against asexual blood stage Plasmodium falciparum ,using a nano luciferase reporter read-out” (2022)
The campaign covered roughly 150,000 compounds. About 540 (0.36%) showed an effect of 50% or more. The list shows a part of the results.

System: Plasmodium falciparum
Assay: Primary screen in NF54 nanoGlo assay, in single point, at 2uM, 72h; a lower Z score goes with more inhibition
Assay type: functional, Erythrocyte
Conditions: timepoint 72 hour

SMILES	% Inhibition	Z score
COCCn1cc(C(=O)NC[C@@]23CCC[C@@H]2OCC3)c(C)n1	-6%	1.08
Cc1ccc(CNC(=O)CNC(=O)c2ccc(F)cc2F)n1C	-3%	0.66
CCNc1ncc(CN2CC[C@]3(OC)CC[C@@H](OCCO)C[C@H]23)cn1	-3%	0.54
O=C(CCc1ccncc1)N(Cc1ccccc1)[C@H]1CCS(=O)(=O)C1	-9%	1.53
COc1ccc2nc(C)c(C(=O)OCC(=O)N3CCC(Cc4ccccc4)CC3)cc2c1	2%	-0.26
Cc1nc(C2CCNCC2)cc(N(C)Cc2cc(-c3ccccc3)on2)n1	-14%	2.85
CCC(=O)N(CC(=O)Nc1cc(N2CCN(C(=O)NC(C)C)CC2)ccc1Cl)Cc1ccc(F)cc1	-21%	2.22
CCOC(=O)C1CCCN(C(=O)C(NC(=O)c2ccc(Cl)cc2Cl)C(C)C)C1 (configuration not stated)	1%	-0.13
C[C@H](O)c1cc2n(n1)CCN(S(=O)(=O)Cc1cc(F)ccc1Cl)C2	-10%	0.99
CC[C@H](NC(=O)N1CCNC(=O)CC1)C(C)(C)c1ccccc1	0%	0.07
Cc1cnn(CCC(=O)N2CCN(C(=O)CCn3cc(C)cn3)[C@H](C(=O)N(C)C)C2)c1	-6%	0.56
CC1CCN(C[C@H]2CCCCCN2C(=O)NC2CCCC2)CC1	-2%	0.34
O=c1ccn(-c2ccccn2)n1CC1C[C@@H]2C=C[C@H]1C2 (some centres not stated)	-15%	1.96
Cc1[nH]nc(C(F)(F)F)c1NS(=O)(=O)c1cccs1	33%	-0.43
CCCn1cc(CNc2cccnc2-n2cccn2)cn1	-8%	1.13
CC(C)[C@H](NC(=O)c1cc(O)ccn1)C(=O)NC1CCCCC1	-5%	0.48
FC(F)(F)Cn1nc(C2CCOCC2)nc1-c1scc2c1OCCO2	-7%	0.69
Cc1nccn1-c1cc(N2CCN(C)CC2)nc2ccnn12	0%	-0.05
CCc1cc(-c2n[nH]c(CC)c2-c2nnc(-c3ccccc3)s2)c(O)cc1OC	3%	-0.38
CC(C)n1ncc(C(=O)N[C@@H](C)C(=O)NCc2ccccc2)c1C(F)(F)F	-9%	1.38
CC(C)Cn1c(=O)c2sccc2n(CC(=O)Nc2ccc3c(c2)CCC3)c1=O	-6%	0.83

SMILES	% Inhibition	Z score
Cc1noc([C@@H]2CN(Cc3ccncc3F)C[C@H]2C(N)=O)n1	3%	-0.47
Cc1occc1C(=O)NC[C@](C)(O)C1CCCCC1	-4%	0.54
CCc1cc(C(=O)Nc2cc(C)on2)no1	-10%	1.1
COc1ccc(C[C@H]2CCOC3(CCN(C(=O)Cc4cccc(F)c4)CC3)C2)cc1	-3%	0.38
Cc1nn(C)c2nc(N[C@H](c3cccnc3)C(F)(F)F)sc12	13%	-1.64
COC[C@@H](O)CN(C)C(=O)c1n[nH]c2ccccc2c1=O	1%	-0.16
CCCC1(C(=O)O)NC(c2ccccc2O)C2C(=O)N(c3cccc4ccccc34)C(=O)C21 (configuration not stated)	-4%	0.52
Cc1c(C2NC(=O)C3CCCCN32)cc(C#N)n1C (configuration not stated)	-15%	1.31
Cc1ccc2cc1Oc1cccc(c1)CO[C@H]1CN(C(=O)Cn3nc(C)c(C)cc3=O)C[C@@H]1NC(=O)CN(C)C2=O	-8%	1.66
CCc1ccc(C(=O)N[C@H]2CCc3nccn3C2)o1	-14%	2.1
Cc1cc(C2CCC2)nc(-c2cccc(C(=O)N(C)Cc3cccnc3)c2)n1	-3%	0.46
Cc1nc(C(C)C)ncc1C(=O)N1CC[C@@H]2OCc3cccc(c3)Oc3ccc(cc3)CCC(=O)N(CCCO)CC(=O)N[C@H]2C1	-1%	0.18
Fc1ccccc1-c1noc(C2CCC(N3CCOCC3)CC2)n1 (configuration not stated)	0%	-0.09
O=C1NCCN(Cc2cccc3ccccc23)[C@H]1CC(=O)N1CCCC1	-9%	1.81
CCc1nc([C@@H]2CCCN2c2ncnc3ccsc23)no1	-19%	2.08
CCCn1ccnc1C(F)(F)C(=O)N[C@H]1CCN(c2ccc(Cl)cc2)C1=O	-14%	1.46
C[C@H](O)c1cn(C2CN(C(=O)c3c[nH]nc3-c3ccc(F)c(Cl)c3)C2)nn1	-10%	1.08
O=C(NCc1ccc(O)nc1)c1cc(F)c(Cl)cc1F	-16%	1.46
NC(=O)c1ccc(-c2nc([C@@H]3C[C@@H](O)CN3)n(C3CCCCC3)n2)cc1	-7%	1.18
CC(C)OC(=O)c1ccc(NC(=O)C(C)N2CCC(CN3CCCCC3)C2)cc1 (configuration not stated)	4%	-0.56
Cn1c(Cn2cncn2)nnc1C1CCN(c2ccncc2F)CC1	-14%	1.76

SMILES	% Inhibition	Z score
Cn1cnc(C(=O)N[C@@H]2[C@H]3CCO[C@H]3[C@H]2Cc2ccccc2)c1	-10%	1.56
COc1cc(CN(C)Cc2cccnc2)ccc1OC[C@@H](O)CN1CCOCC1	-9%	1.23
CC(C)(C)OC(=O)N1CC(Oc2nc3ccccc3s2)C1	-8%	0.98
CO[C@](C)(C(=O)N1CCC12CCOCC2)C1CC1	-10%	1.04
Cn1c(=O)[nH]c(=O)c2c1nc(N1CCN(CC=Cc3ccccc3)CC1)n2Cc1ccc(Cl)cc1	6%	-1.17
CC(=O)N1CCc2[nH]cnc2C12CCN(C(=O)CCOc1ccccc1)CC2	-2%	0.39
CN1C(=O)[C@]2(Nc3ccccc3C(=O)N2CCc2ccccc2)c2ccccc21	-3%	0.48
COc1ccc(OC/C=C/CN(C)C)cc1	-6%	0.7
Cc1noc(C)c1CN(C)S(=O)(=O)c1cccnc1	3%	-0.28
O=C1CN(C(=O)Nc2cccc(F)c2)C2CCCCC2N1 (configuration not stated)	34%	-3.8
Cc1cc2n(n1)CCC(=O)N2CC(=O)N(C)Cc1ccccc1	-9%	0.91
COc1ccc(C2CC3(O)CC(C#N)(C(=O)N3)C2(C#N)C#N)cc1 (configuration not stated)	-11%	1.23
CC(C)CN(Cc1cc(Cl)ccc1OS(C)(=O)=O)C(=O)CC(C)(C)C	6%	-0.62
O=C(Cc1ccc(F)cc1)Nc1cc(S(=O)(=O)N2CCOCC2)ccc1Oc1ccc(F)cc1	-14%	1.22
CCCNC(=O)N1CCC[C@@]2(CCC(=O)N(CCc3ccccc3)C2)C1	-13%	1.71
Cc1ccc(CCC(=O)NCc2ccc3c(c2)OCO3)cc1	-12%	1.72
O=C(Cc1nnc(O)c2ccccc12)Nc1cccc(S(=O)(=O)N2CCCC2)c1	-17%	1.4
NC(=O)CCC(NC(=O)CCC1CCCC1)C(=O)NCC1(C(O)c2ccccc2)CC1 (configuration not stated)	-2%	0.21
O=S(=O)(Cc1csc(COc2ccc(Cl)cc2)n1)C[C@H]1CCOC1	-17%	2.15
O=C(O)C1CCN(CC(Cc2ccccc2)Cc2ccccc2)CC1	-3%	0.45
COc1ccc(CCC(=O)N[C@H]2CC[C@H](Oc3nccnc3C#N)CC2)cc1	-15%	1.72

SMILES	% Inhibition	Z score
CCc1ccc(OCCN(C)C(=O)CC2=CCNCC2)cc1	-12%	2.25
O=C1NC(c2ccc(-c3cccc(Cl)c3)o2)C(C(=O)c2ccccc2)C(O)(C(F)(F)F)N1 (configuration not stated)	-6%	1.11
Cn1cc(Cl)cc1C(=O)N1CCC(OCCN2CCCC2)CC1	-5%	0.63
CCCc1nnc(N2CCC[C@@]3(CCN(C)C3)C2)o1	-10%	1.13
CCc1ccccc1S(=O)(=O)N1CC[C@H](c2nc(N(C)C)ncc2C(=O)NC(C)C)C1	-9%	1.29
COc1ccc(Cl)cc1C(=O)NC1CC2CCC(C1)N2S(C)(=O)=O (configuration not stated)	-10%	1.33
CCCC(CCC)C(=O)Nc1ccccc1OC	-14%	2.59
COc1cccc(-c2cn(C)c3c(=O)n(CC(=O)Nc4ccc(C(F)(F)F)cc4)cnc23)c1	37%	-0.83
CCN(CC(=O)Nc1c(C)nn(C)c1C)[C@@H](C)C(C)C	0%	-0.05
CN(CC(N)=O)S(=O)(=O)c1cc(F)ccc1F	1%	-0.11
CCN(CC(=O)Nc1ccc(NC(C)=O)cc1)C(=O)c1cc(C)on1	-7%	1.3
CN(C)C(=O)Nc1cccc2c1C[C@@](c1ccccc1)(C(F)(F)F)O2	-16%	1.87
Cc1cc(NCCc2ccc(S(N)(=O)=O)s2)nc(C)n1	-4%	0.63
C[C@H](Oc1ccc(F)cc1)C(=O)N1CCC(c2nc3ccccc3o2)CC1	-30%	2.67
CCC(C)(C)NCC(=O)Nc1c(Br)cc(C)cc1Br	1%	-0.22
C[C@H]1c2ccsc2CCN1C(=O)c1cnn(-c2ccccc2)n1	-3%	0.52
Cc1ccc2c(C(=O)[C@H](C#N)C(=O)c3noc4c3CCCC4)c[nH]c2c1	-3%	0.59
O=C(CN1CCCCC1)Nc1ccc2c(c1)OCO2	-7%	0.61
